Measurements reported in PubChem BioAssay AID624171 (National Center for Advancing Translational Sciences (NCATS), 2012).
The whole screen tested about 410,000 compounds, of which about 1,200 (0.29%) were called active. The inconclusive results got no clear call from the source; some entries with a clear call stand among them for comparison. Calls come from the whole dose curve; as a rule, active = well fitted activation curve with a large enough effect; inconclusive = small, poorly fitted or top-dose-only effect; inactive = flat fitted curve, though single readings scatter. Potencies of inconclusive entries are doubtful fits and often do not repeat.
Potency is the fitted concentration of half-maximal effect; tags give direction and shape of the fitted curve.

Assay: qHTS of Nrf2 Activators; note: nearly all actives have a fitted effect of over 65% in size
Conditions: AREc32 ARE-luciferase reporter (MCF7-derived line), luminescence, 24 h; activation: at 46.1 µM (top of the series)
Text: Many diseases have some form of oxidative stress injury and ties to inflammation, causing a host of problems for the patient. The antioxidant response element (ARE) plays an important role in alleviating the harmful effects of oxidative stress. The antioxidant response element (ARE) is a transcriptional regulatory element involved in the activation of genes coding for a number of antioxidant proteins and detoxifying enzymes. These enzymes work in concert to protect tissues from oxidative insults and chemical toxicities in human hepatocytes and immune cells. The protective effects of ARE activation are primarily triggered through Nrf2 (NF-E2-related factor) binding to and activating AREs. It is known that Nrf2 controls the production of over 250 antioxidant and detoxification proteins (Hu et al., 2006), thereby protecting tissues by increasing cellular antioxidant content and suppressing inflammatory signaling pathways. The transcription factor Nrf2 is a central link between oxidative chemicals, such as phenolic antioxidants and electrophilic compounds, and the activation of ARE. Nrf2 levels are constitutively low as a consequence of its interaction with Keap1, which targets its degradation (Zipper and Mulcahy, 2002). Electrophiles react with key cysteine residues in Keap1, releasing Nrf2 and allowing its translocation to the nucleus. Once within the nucleus, Nrf2 complexes with coactivators such as p300, and binds to the AREs to induce gene transcription of cytoprotective enzymes, resulting in the prevention of toxicity. Activation of Nrf2 protects tissues by increasing cellular antioxidant content and suppressing inflammatory signaling pathways. Identifying novel and potent Nrf2 activators by using the AREc32 cell line to detect ARE activation by small molecules will lead to the identification and development of probes to study protective pathways in multiple tissues. These specific probes are essential to study the ARE pathway, and eventually to determine whether this pathway does activate genes that could protect against a host of diseases, including cardiovascular diseases, obesity, diabetes, Alzheimer's, and Parkinson's disease.
This project's aim is to identify novel and potent Nrf2 activators by using the AREc32 cell line to detect ARE activation by small molecules, which will lead to the identification and development of probes to study the ARE pathway.
NIH Chemical Genomics Center [NCGC]
NIH Molecular Libraries Probe Centers Network [MLPCN]
Assay Submitter (PI): Curtis Klaassen, University of Kansas Medical Center
5 uL of 1000 cells/well of AREc32_Fluc cells are seeded into 1536-well plate in OPTI-MEM medium with 5% FBS. The plates are incubated overnight at 37 deg C with 5% CO2. Then through pin tool transfer, 23 nL of compounds are added to each well before a 24 hr incubation at 37 deg C with 5% CO2. After the addition of 2.5 uL of Steady-Glo. the plates are kept at RT for 30 min, before they are read on the ViewLux.
For `CNC(=O)OCc1nc(SSC(C)(C)C)n(C)c1COC(=O)NC`, the Potency was inconclusive: 5.62 µM [activator, single point].
In the case of `CC(=O)c1cccc(Nc2c([N+](=O)[O-])c(=O)oc3ccccc23)c1`, the Potency is reported as inconclusive: 17.8 µM [activator, single point].
With `Cc1cc(C)c(S(=O)(=O)c2ccccc2)c(Cl)n1` the Potency was “inactive”.
In the case of `O=C(COc1ccccc1Cl)Nc1cc(Cl)ccc1O`, the Potency is reported as inconclusive: 3.55 µM [activator, partial curve, poor fit].
With `CCc1sc(Nc2cccc(Cl)c2C)nc1-c1cc2cccc(OC)c2oc1=O` the Potency was “inactive”.
For `O=C(Nc1ccccc1Cl)c1cccs1`, the Potency was inconclusive: 22.4 µM [activator, single point].
For `O=C(c1coc(=O)c(Br)c1)N1CCOCC1`, the Potency was inconclusive: 15.8 µM [activator, partial curve, poor fit].
For `CN(C(=O)c1ccc(NC(=O)Cc2ccc(NC(=O)C3CCCN(C(=O)CCc4ccccc4)C3)cc2)cc1)C1CC1` (stereo not drawn), the Potency was “inactive”.
In the case of `COc1ccc(OCC(=O)Nc2ccc(S(=O)(=O)N3CCOCC3)cc2)cc1`, the Potency is reported as “inactive”.
For `Cc1cccc(/C=N/NC(=O)c2cc(Br)ccc2OCc2ccccc2)n1`, the Potency was “inactive”.
With `O=C(NC(=S)NCCO)c1sc2ccccc2c1Cl` the Potency was inconclusive: 15.8 µM [activator, single point].
For `COCCn1c(=O)[nH]c2cc(C(=O)NCCCN3CCN(c4ccc(F)cc4)CC3)ccc2c1=O`, the Potency was “inactive”.
For `COc1ccc(CCNC(=O)CCCn2c(=O)c3ccccc3n(Cc3c(C)cc(C)cc3C)c2=O)cc1OC`, the Potency was “inactive”.
For `CC(=O)c1ccccc1NC(=O)COC(=O)/C(=C/c1ccccc1)n1nnnc1C`, the Potency was inconclusive: 20 µM [activator, single point].
In the case of `C[n+]1cccc(/C=N/Nc2nc(Cl)c(C#N)c(Cl)c2Cl)c1`, the Potency is reported as inconclusive: 20 µM [activator, single point].
With `O=C(Oc1c(CN2CCOCC2)cc(Cl)c2cccnc12)c1ccccc1F` the Potency was “inactive”.
In the case of `CSc1ncc(Cl)c(C(=O)N(Cc2ccc(N(C)C)cc2)Cc2ccco2)n1`, the Potency is reported as inconclusive: 17.8 µM [activator, single point].
With `CC(C)CCNC(=O)C1CCC(Cn2c(=O)c3sccc3n(CC(=O)NC(C)C)c2=O)CC1` (stereo not drawn) the Potency was “inactive”.
With `Cc1cccc(N=Cc2[nH]c3ccc(Br)c(Cl)c3c2O)c1` the Potency was inconclusive: 20 µM [activator, single point].
For `O=C(Nc1cc(Cl)ccc1O)C1CC(c2ccccc2Cl)=NO1` (stereo not drawn), the Potency was inconclusive: 28.2 µM [activator, single point].
In the case of `O=c1[nH][nH]cc1C=Nc1ccccc1O`, the Potency is reported as active: 12.6 µM.
With `CS(=O)(=O)n1nc(OC(=O)c2cccc3ccccc23)cc1N` the Potency was active: 14.1 µM.
For `CSc1nnc(NC(=O)c2nc(S(=O)(=O)Cc3ccccc3)ncc2Cl)s1`, the Potency was inconclusive: 17.8 µM [activator, single point].
In the case of `COc1ccc(C(C#N)=C2C=C(Cl)C(=NO)C=C2Cl)cc1`, the Potency is reported as active: 11.2 µM.
For `c1csc(CSc2nc3ccccc3s2)c1`, the Potency was inconclusive: 15.8 µM [activator, single point].
In the case of `CC(=O)c1ccc(-n2c(C)ccc2-c2ccccc2)cc1`, the Potency is reported as inconclusive: 20 µM [activator, single point].
For `CCOC(=O)c1c(-c2ccco2)csc1NC(=O)CSc1nnc(N)s1`, the Potency was inconclusive: 2 µM [activator, full curve, poor fit].
For `COc1ccc(CC(=O)Nc2nc(C)cs2)cc1OC`, the Potency was “inactive”.
For `O=C(c1nc2ccc(Cl)cn2c1CN1CCC[C@H]1CO)N1CCc2ccccc2C1`, the Potency was “inactive”.
With `COc1ccc(NC(=O)c2cc(-c3cccs3)on2)c(OC)c1` the Potency was active: 1.26 µM.
For `Cc1cccc(C)c1-n1cccc1/C=C1\SC(=S)N(c2cccc(C(=O)O)c2)C1=O`, the Potency was “inactive”.
In the case of `COC(=O)c1cc2c(C)nn(-c3ccccc3)c2s1`, the Potency is reported as inconclusive: 7.94 µM [activator, partial curve, poor fit].
In the case of `CC(/C=N/NC(=O)c1ccccn1)=C\c1ccco1`, the Potency is reported as inconclusive: 15.8 µM [activator, partial curve, poor fit].
In the case of `N=c1n(CCN2CCOCC2)c2ccccc2n1CC(=O)c1cccc([N+](=O)[O-])c1`, the Potency is reported as active: 3.16 µM.
With `O=c1c2ccccc2sn1-c1ccccc1` the Potency was inconclusive: 17.8 µM [activator, single point].
With `O=C(COC(=O)/C=C/c1ccccc1[N+](=O)[O-])Nc1ccc2[nH]c(=O)[nH]c2c1` the Potency was active: 11.2 µM.
In the case of `O=C1CC(C(=O)Nc2ccccc2)S/C(=N\N=C\c2ccco2)N1` (stereo not drawn), the Potency is reported as inconclusive: 12.6 µM [activator, partial curve, poor fit].
With `O=C(CCN1CCCCC1)c1ccc2c(c1)OCO2` the Potency was inconclusive: 25.1 µM [activator, single point].
For `CC(C)NC(=O)CSc1nnc(-c2ccc(F)cc2)c2ccccc12`, the Potency was inconclusive: 31.6 µM [activator, single point].
With `Cc1ccc2oc(=O)c(/C=C(\O)C(C)(C)C)nc2c1` the Potency was inconclusive: 22.4 µM [activator, single point].
For `COc1ccc(CN2COc3ccc4c(oc(=O)c5ccccc54)c3C2)cc1OC`, the Potency was inconclusive: 25.1 µM [activator, single point].
With `COc1cc(NC(=O)c2cc([N+](=O)[O-])ccc2Br)ccc1NC(=O)c1ccco1` the Potency was inconclusive: 22.4 µM [activator, single point].
In the case of `CCCCN1C(=O)C2(NNc3ccccc3O2)c2ccccc21` (stereo not drawn), the Potency is reported as inconclusive: 2.51 µM [activator, partial curve, poor fit].
In the case of `COc1ccccc1/C=C/C(=O)c1ccccc1`, the Potency is reported as inconclusive: 17.8 µM [activator, partial curve, poor fit].
With `CC(C)Cc1ccc(C(C)/C=C2/CCC(CN3CCCCC3)C2=O)cc1` (stereo not drawn) the Potency was active: 12.6 µM.
For `CCOC(=O)COc1c(OC)cc(Cl)cc1C1Nc2ccccc2C(=O)N1c1ccc(F)cc1` (stereo not drawn), the Potency was “inactive”.
For `CC1CC1c1ccc(/C=C(\C#N)C(=O)Nc2ccc(Cl)cc2)o1` (stereo not drawn), the Potency was active: 6.31 µM.
In the case of `COc1ccc(S(=O)(=O)Nc2cc3c(cc2NCc2ccccc2)n(C)c(=O)n3C)cc1OC`, the Potency is reported as inconclusive: 10 µM [activator, partial curve].
In the case of `COc1ccccc1N1CCN(C(=O)Cn2c(=O)nc(-c3ccccc3)c3cc(Cl)ccc32)CC1`, the Potency is reported as “inactive”.
For `Cc1ccc2nc(C)cc(C(=O)OCC(=O)c3ccc(Cl)c([N+](=O)[O-])c3)c2c1`, the Potency was inconclusive: 22.4 µM [activator, single point].
For `CCOC(=O)C(=Cc1ccc(-n2cncn2)cc1)C(=O)OCC`, the Potency was inconclusive: 5.62 µM [activator, single point].
In the case of `CCC1CSC(Nc2ccc(C(=O)/C=C/c3ccc(Br)cc3)cc2)=N1` (stereo not drawn), the Potency is reported as inconclusive: 31.6 µM [activator, single point].
With `O=C(CCNc1cccc(C(F)(F)F)c1)c1ccco1` the Potency was active: 15.8 µM.
For `Cc1cc2cc(C=C(C#N)C#N)c(Cl)nc2cc1C`, the Potency was inconclusive: 20 µM [activator, single point].
For `CC1=CN2C(=N)/C(=C/c3ccc([N+](=O)[O-])o3)C(=O)N=C2S1`, the Potency was inconclusive: 35.5 µM [activator, partial curve, poor fit].
With `O=C(/C=C/Sc1ccccc1)c1ccccc1` the Potency was inconclusive: 5.01 µM [activator, full curve].
With `CCOc1ccc(CC2S/C(=N/N=C/c3ccco3)NC2=O)cc1` (stereo not drawn) the Potency was inconclusive: 3.16 µM [activator, partial curve, poor fit].
In the case of `Cc1ccc(CCNC(=O)CN2C(=O)COc3ccc(S(=O)(=O)N4CCOCC4)cc32)cc1`, the Potency is reported as “inactive”.
With `O=S(=O)(CCSc1ccc(C(F)(F)F)cn1)c1ccc(Cl)cc1` the Potency was inconclusive: 22.4 µM [activator, partial curve, poor fit].
For `Cn1c(N=Nc2ccccc2)nc2ccccc21`, the Potency was inconclusive: 2.82 µM [activator, partial curve, poor fit].
With `O=C(CN1C(=O)/C(=C/c2cccc(Cl)c2)SC1=S)NC1C=CS(=O)(=O)C1` (stereo not drawn) the Potency was active: 14.1 µM.
In the case of `O=C(NCCc1c[nH]c2ccccc12)c1ccc([N+](=O)[O-])o1`, the Potency is reported as inconclusive: 3.16 µM [activator, full curve, poor fit].
In the case of `Cc1cc(C(=O)N/N=C\C(Br)=C\c2ccccc2)c(C)o1`, the Potency is reported as active: 20 µM.
In the case of `Cc1cc(O)c(CN(C)C)c2c1C(=O)/C(=C/c1ccco1)O2`, the Potency is reported as inconclusive: 25.1 µM [activator, single point].
With `CN(C)c1ccnc2sc(C(=O)c3ccccc3)c(N)c12` the Potency was active: 10 µM.
In the case of `Oc1c(C=NCc2ccncc2)sc2ccccc12`, the Potency is reported as active: 14.1 µM.
With `Cc1cnc(NC(=O)c2ccc(Cl)nc2)s1` the Potency was inconclusive: 14.1 µM [activator, partial curve, poor fit].
For `CCc1nn2c(=O)cc(COC(=O)c3ccc(SC)cc3OC)nc2s1`, the Potency was “inactive”.
For `O=C(C[n+]1ccccc1)N/N=C/c1ccccc1F`, the Potency was “inactive”.
For `O=C(Nc1cccc(NC(=O)c2cccs2)c1)c1cccnc1`, the Potency was active: 12.6 µM.
With `O=C(Nc1cnc2ccccc2c1)c1ccco1` the Potency was inconclusive: 5.01 µM [activator, full curve].
For `O=C(CCS(=O)(=O)Cc1ccccc1)Nc1nc2c(s1)CCCC2`, the Potency was inconclusive: 12.6 µM [activator, partial curve].
With `CCC(C)C(NC(N)=O)C(=O)Nc1ccc(C)c(Cl)c1` (stereo not drawn) the Potency was “inactive”.
